The other results are listed elsewhere or left out. At the low end of the ranking the order means little.

The assay concerns the target MAX:MAX (p21) (UniProt P61244-2). Kind of assay: protein-binding microarray (anti-MAX antibody). As to conditions: PBM: 15 mM Tris-HCl pH 7.5, 100 mM KCl, 0.075% NP40, 7.5 mM beta-mercaptoethanol, 375 ng/ul BSA, 8 ng/ul poly(dA-dT):(dA-dT), 550 ng complex, 60 min, room …; high values mean tight binding; double strand, one strand shown; sequences stand for … in CCGGC…TTAATAGCTAAGATTACTATATCGACG
Take TGATCAGAGGTA: the binding signal (log2 normalized fluorescence) is -0.421.

Turning to TGAAAACTTGTA, the binding signal (log2 normalized fluorescence) is -0.947.

In turn, TGATTTGCAGTA had a binding signal (log2 normalized fluorescence) of -1.02.

CGGCTCGTGGTA: the binding signal (log2 normalized fluorescence) is 2.83.

For the sequence TGACTCGTGCTG, the binding signal (log2 normalized fluorescence) was found to be 2.92.

With TGATGTCGCGTA, the binding signal (log2 normalized fluorescence) is -0.12.

The sequence TGACGTGAAGTA displayed a binding signal (log2 normalized fluorescence) of 0.269.

TGATTTCATGTA registered a binding signal (log2 normalized fluorescence) of -0.0703.

On to TGATCTTTCGTA, for which the binding signal (log2 normalized fluorescence) is -1.28.

TGACAGTTAGTA registered a binding signal (log2 normalized fluorescence) of -0.587.

In turn, TGATCAGTCGTA came in with a binding signal (log2 normalized fluorescence) of -0.894.

With CCTCACGTGGTA, the binding signal (log2 normalized fluorescence) amounted to 3.26.

In the case of TGATCGGCGGTA, the binding signal (log2 normalized fluorescence) is -0.884.

The sequence TGAAGCTGCGTA returned a binding signal (log2 normalized fluorescence) of -0.854.

Regarding GGACTCGTGATA, the binding signal (log2 normalized fluorescence) stood at 3.03.

In turn, TGATGTAGCGTA showed a binding signal (log2 normalized fluorescence) of -0.431.

Take TGATGACACGTA: the binding signal (log2 normalized fluorescence) was 0.641.

In turn, TGAAGAATTGTA gave a binding signal (log2 normalized fluorescence) of -0.924.

Regarding TGATGTGAGGTA, the binding signal (log2 normalized fluorescence) turned out to be 0.197.

For the sequence TGAAGGCCCGTA, the binding signal (log2 normalized fluorescence) is -0.779.

For TGATCACAGGTA, the binding signal (log2 normalized fluorescence) is 0.41.

Sequence TGAGGGTTTGTA yielded a binding signal (log2 normalized fluorescence) of -0.842.

Turning to TGAGTAAATGTA, the binding signal (log2 normalized fluorescence) is -1.03.

With TCACACCTGTTA, the binding signal (log2 normalized fluorescence) was found to be 2.73.

Sequence TGAGCCGCAGTA returned a binding signal (log2 normalized fluorescence) of -1.11.

The sequence TGACGTTAAGTA yielded a binding signal (log2 normalized fluorescence) of -0.283.

TGCGTCGTGGTA came in with a binding signal (log2 normalized fluorescence) of 1.51.

Take TGAGAGGACGTA: the binding signal (log2 normalized fluorescence) was -0.633.

Sequence TGATTCATCGTA displayed a binding signal (log2 normalized fluorescence) of -0.789.

Regarding TGACACGCCGTA, the binding signal (log2 normalized fluorescence) is 2.42.

Consider TGAGGACGGGTA, for which the binding signal (log2 normalized fluorescence) was -0.465.

The sequence TGATAACCCGTA came in with a binding signal (log2 normalized fluorescence) of -0.251.

TGACCTCGCGTA yielded a binding signal (log2 normalized fluorescence) of 1.02.

For the sequence TGATGTCCTGTA, the binding signal (log2 normalized fluorescence) was 0.176.

The sequence TGACCACTAGTA registered a binding signal (log2 normalized fluorescence) of -0.116.

With TGAGAGAATGTA, the binding signal (log2 normalized fluorescence) was -0.684.

As to TGATCTGTGGTA, the binding signal (log2 normalized fluorescence) is -0.713.

In turn, TGAGAGCTCGTA displayed a binding signal (log2 normalized fluorescence) of -0.984.

In turn, TGAATGAATGTA yielded a binding signal (log2 normalized fluorescence) of 0.0478.

TGAGAATACGTA registered a binding signal (log2 normalized fluorescence) of -0.622.

With TGAGGGTGAGTA, the binding signal (log2 normalized fluorescence) is -0.306.

Take TGACGCCTCGTA: the binding signal (log2 normalized fluorescence) was -0.311.

TGACTAAGCGTA gave a binding signal (log2 normalized fluorescence) of -0.723.

Turning to TGAAGGAGGGTA, the binding signal (log2 normalized fluorescence) is -0.228.

Turning to TGAGCCTATGTA, the binding signal (log2 normalized fluorescence) is -0.921.

The sequence TGACTCACGGTA registered a binding signal (log2 normalized fluorescence) of 0.412.

The sequence TGATTGTTTGTA yielded a binding signal (log2 normalized fluorescence) of -1.1.

The sequence TGAGGCTCTGTA yielded a binding signal (log2 normalized fluorescence) of -0.775.

As for TGAAGCCAAGTA, the binding signal (log2 normalized fluorescence) is -0.737.

In the case of TGAAGCAGCGTA, the binding signal (log2 normalized fluorescence) is -0.345.

As for TGAGTTCTTGTA, the binding signal (log2 normalized fluorescence) was -1.08.

In turn, TGACTACTAGTA came in with a binding signal (log2 normalized fluorescence) of -0.604.

As for TGACATACGGTA, the binding signal (log2 normalized fluorescence) is 0.646.

As for TGATGTAGGGTA, the binding signal (log2 normalized fluorescence) was 0.0352.

On to TGATGGGGCGTA, for which the binding signal (log2 normalized fluorescence) amounted to 0.264.

As for TGAAGGCACGTA, the binding signal (log2 normalized fluorescence) worked out at 0.169.

Regarding TGAATCTGTGTA, the binding signal (log2 normalized fluorescence) is -0.879.

Sequence TGAGTGATCGTA returned a binding signal (log2 normalized fluorescence) of 0.187.

TGAATTCATGTA yielded a binding signal (log2 normalized fluorescence) of -0.0758.

As to TGAGATTAAGTA, the binding signal (log2 normalized fluorescence) was -1.33.

TGAGCGTGCGTA: the binding signal (log2 normalized fluorescence) was determined as 2.15.

For the sequence TGAACCGAAGTA, the binding signal (log2 normalized fluorescence) is -0.755.

Regarding TGACGCGGCGTA, the binding signal (log2 normalized fluorescence) was 0.0901.

Consider GAAGCTTTGGTG, for which the binding signal (log2 normalized fluorescence) is -1.18.

TGACGCGGAGTA had a binding signal (log2 normalized fluorescence) of -0.194.

TGAAGGGCGGTA displayed a binding signal (log2 normalized fluorescence) of -0.00457.

TGACAGAAAGTA: the binding signal (log2 normalized fluorescence) was -0.581.

In turn, TTTCACATGGTA had a binding signal (log2 normalized fluorescence) of 3.34.

Regarding TGAGGCAATGTA, the binding signal (log2 normalized fluorescence) was -0.283.

TGATCCTTCGTA showed a binding signal (log2 normalized fluorescence) of -1.05.

As for TGACGTGGTGTA, the binding signal (log2 normalized fluorescence) was found to be 1.52.

Consider TTTCAGGTGGTA, for which the binding signal (log2 normalized fluorescence) is 1.74.

As to TGAAGTGCAGTA, the binding signal (log2 normalized fluorescence) is -0.233.

As for TGATCAGTGGTA, the binding signal (log2 normalized fluorescence) was -0.305.

Turning to TGAGATTTGGTA, the binding signal (log2 normalized fluorescence) was -1.41.

Source of the values: article PMC5515408.
